# Data reported in article PMC10668032.
# This is one part of the list. At the low end of the ranking the order means little.
# Molecular target: SIX1 homeodomain (reference allele) (UniProt Q15475)
# Experiment: universal protein binding microarray
# Settings: Universal all-10-mer PBM (8x60K, AMADID 030236), 300 nM GST-tagged protein, Alexa Fluor 488 anti-GST; buffer, salt, pH and temperature not stated; high values mean tight binding; most listed sequences are background and not binding sites; double strand, one strand shown
row,Sequence,binding signal
1,ATGCTCAC,-0.126 E-score
2,ATGGGATC,0.368 E-score
3,GAATTACA,-0.0404 E-score
4,GTAACCCA,0.169 E-score
5,TACTCTCA,-0.0207 E-score
6,CGCACACA,-0.108 E-score
7,CAATGCTC,-0.165 E-score
8,ACCGTGGC,-0.189 E-score
9,AGGACACT,-0.0785 E-score
10,GGACTGAA,-0.295 E-score
11,CACTTCCC,-0.169 E-score
12,CCCATACA,0.0926 E-score
13,ACACTCCA,-0.0164 E-score
14,ACATTTTC,-0.167 E-score
15,AGTCTTAC,-0.111 E-score
16,CGTGAAAA,-0.243 E-score
17,CACCAGCC,0.0347 E-score
18,CTTCCAAG,-0.142 E-score
19,GATCTGAC,0.238 E-score
20,GCGGGACC,-0.243 E-score
21,CCGAGACA,0.188 E-score
22,CTAGACCC,0.103 E-score
23,CAACGGAC,-0.22 E-score
24,CGGGCCGA,-0.107 E-score
25,TACCACGA,0.191 E-score

row,Sequence,binding signal
1,AGCGAAAC,-0.148 E-score
2,CCTCTCGA,-0.0263 E-score
3,ATATTTCA,0.0592 E-score
4,CGAAGTCA,-0.172 E-score
5,GAGAAGCA,0.0328 E-score
6,GGAATTAC,-0.184 E-score
7,AAGCGGGG,-0.0754 E-score
8,TCGCCAGA,-0.066 E-score
9,CTACCATA,0.167 E-score
10,GACACTAA,-0.1 E-score
11,CGTCGCCC,-0.168 E-score
12,CGCCAGCC,-0.157 E-score
13,GTGGTTCA,0.118 E-score
14,CGGCATAA,-0.0508 E-score
15,ACCCGTGG,-0.0261 E-score
16,AAAAGTCA,-0.312 E-score
17,CTTGCCAC,-0.151 E-score
18,AGCAAAGC,-0.249 E-score
19,AGACCCCC,0.0014 E-score
20,GGCCATAA,-0.0624 E-score
21,CTAAGTTC,-0.177 E-score
22,AATGCAGA,-0.0421 E-score
23,CTCGTTCA,-0.0856 E-score
24,CGGCCAGA,0.0419 E-score
25,GAGATGGA,0.0841 E-score

row,Sequence,binding signal
1,CAGTACTA,-0.0442 E-score
2,CAACGATC,0.277 E-score
3,AGCAGACC,-0.272 E-score
4,CTGATGCA,-0.0826 E-score
5,CATTTTTC,-0.157 E-score
6,CTATTTAA,-0.129 E-score
7,AGGTAGGC,0.167 E-score
8,CCGGACGG,-0.0553 E-score
9,ACGTAACA,-0.0601 E-score
10,GGCACGAC,-0.11 E-score
11,CATGGGCG,-0.0545 E-score
12,ACATCCGC,0.0351 E-score
13,CGCGTATA,0.232 E-score
14,ACTGGTTC,-0.125 E-score
15,CACGAACG,-0.0101 E-score
16,AGCCTTCC,-0.106 E-score
17,GGGCTCAC,0.268 E-score
18,ACGCGCCA,-0.192 E-score
19,CACGCACA,-0.0653 E-score
20,ATAGGGCG,0.158 E-score
21,AGCTCAGA,-0.0115 E-score
22,AGCAACTG,-0.151 E-score
23,AACTAAGC,-0.131 E-score
24,ACTCCGCA,-0.11 E-score
25,GCGCGGAA,-0.124 E-score

row,Sequence,binding signal
1,ATGTCATA,-0.0499 E-score
2,CAGACCGA,0.116 E-score
3,CGGGCACA,-0.0378 E-score
4,GCTGGACC,-0.184 E-score
5,CCTTGGAC,-0.207 E-score
6,ATCGTCAG,0.0979 E-score
7,ACGACCAG,-0.0546 E-score
8,GCTTTATA,-0.00246 E-score
9,AAGCTTTG,-0.077 E-score
10,CGGTCACC,-0.108 E-score
11,AACAGCGG,-0.255 E-score
12,ATGTATCC,0.407 E-score
13,CGGTGCTA,0.177 E-score
14,GCCAGAGA,0.107 E-score
15,AGCCCATC,-0.0568 E-score
16,GCCCCCGC,-0.0387 E-score
17,CTCTCCTC,-0.0876 E-score
18,AATAGTCA,-0.0564 E-score
19,CTAGACAG,-0.0706 E-score
20,CGCTGAAC,-0.113 E-score
21,AACTTTGG,-0.122 E-score
22,ACTAGTCC,-0.129 E-score
23,GAGTGAGA,0.234 E-score
24,CTCGCTAC,0.0552 E-score
25,AAGGCACT,-0.234 E-score

row,Sequence,binding signal
1,CTCTGCTC,-0.0803 E-score
2,ATTCACGC,0.0582 E-score
3,AGATGGTA,0.0826 E-score
4,CCCACCAC,0.00391 E-score
5,AAGTGGTA,-0.0268 E-score
6,CCATCGTA,-0.00582 E-score
7,CACGGATG,0.132 E-score
8,AGAGAGCG,0.00635 E-score
9,CTCAAGAA,-0.0726 E-score
10,CGTGGGTA,0.148 E-score
11,ACAGTGCG,-0.202 E-score
12,ATGCCCAG,0.00732 E-score
13,AGCGTGCA,0.0568 E-score
14,ATACCTAG,0.392 E-score
15,AGGTAGAA,0.0975 E-score
16,ACATACAC,0.11 E-score
17,CCAGATAC,0.409 E-score
18,AGTGCACC,-0.0484 E-score
19,GGATTCAC,-0.0111 E-score
20,AGGGCCCG,-0.0862 E-score
21,AGTAGACC,-0.0203 E-score
22,AATAATCC,0.243 E-score
23,CCCCATAC,0.0621 E-score
24,CAATAGGC,-0.0717 E-score
25,CCACCAAA,-0.108 E-score

row,Sequence,binding signal
1,AGAATTCC,-0.267 E-score
2,AGCCAACA,-0.141 E-score
3,CACGGATA,0.397 E-score
4,GCACCGAC,-0.1 E-score
5,AGAGTTAA,-0.195 E-score
6,AAAGTGCG,-0.275 E-score
7,AACTCAGC,-0.221 E-score
8,GCGCCCAC,-0.154 E-score
9,AGCACGAT,0.0364 E-score
10,CACGCTCC,-0.249 E-score
11,CTAGGGAC,-0.0435 E-score
12,AGTAAGTG,-0.0953 E-score
13,CTACCTCC,0.0542 E-score
14,AGGAAATC,-0.181 E-score
15,AAGGGTGT,0.32 E-score
16,CCCACGTC,-0.0514 E-score
17,CTCAGCAC,-0.148 E-score
18,GGTTCCTA,-0.0423 E-score
19,ATGCCAAC,-0.091 E-score
20,GACGAGTC,-0.0314 E-score
21,ACTGGTCA,-0.135 E-score
22,GGCTAGTA,0.148 E-score
23,AGTATTAC,0.188 E-score
24,CCTAAAGG,-0.0531 E-score
25,TACCGAAA,0.0495 E-score

row,Sequence,binding signal
1,TAAGCAGA,-0.104 E-score
2,ATAATTGG,-0.0332 E-score
3,ACCCCACG,0.182 E-score
4,TCTTCACA,-0.0523 E-score
5,AGGTCCGC,-0.231 E-score
6,AGTTCAGG,-0.141 E-score
7,ACACTCGC,0.069 E-score
8,GTTTGAGA,0.0377 E-score
9,CTTAAGGA,-0.0392 E-score
10,TGGCGAAA,-0.311 E-score
11,GAGATAGC,0.161 E-score
12,GGCCTAGA,-0.193 E-score
13,AGACCCAT,0.014 E-score
14,AGTCGCAG,-0.157 E-score
15,CTTTCTTC,-0.258 E-score
16,CCCGTTAG,-0.0499 E-score
17,CCTCTTAG,-0.0751 E-score
18,TGCGACAA,-0.189 E-score
19,GGAGAAGA,0.022 E-score
20,CTATAGAA,-0.00138 E-score
21,ATGGCAAT,-0.14 E-score
22,AACTAACA,-0.111 E-score
